In patent US10299477B2 (priority 2015, dated 2019):

Assays:
Assay type in all cases: in vivo
Alternaia brassicicola = assay: Test Example C: Alternaria sooty spot on cabbage; conditions: for Test C (control value class) / Test C control value: Alternaria sooty spot on cabbage; for Test C control value (Alternaria sooty spot on cabbage): preventive, control value class; for Test C (control value class, Alternaria sooty spot on cabbage): in vivo
Excerpt: [Test Example C] Alternaria Sooty Spot on Cabbage
Seeds of a test plant (cabbage variety: Shikidori) were planted followed by cultivating until the cotyledons extended.

Botrytis cinerea = assay: Test Example B: Gray mold on tomato; conditions: for Test B control value (gray mold on tomato): preventive, control value class; for Test B (control value class, gray mold on tomato): in vivo
Excerpt: [Test Example B] Gray Mold on Tomato
Seeds of a test plant (tomato variety: Oogata Fukuju) were planted followed by cultivating until three to five first leaves (true leaves) appeared.

Plasmopara viticola = assay: Test Example G: Downy mildew on vine; conditions: for Test G (control value class): 250 ppm spray; for Test G control value (downy mildew on vine): 250 ppm spray (2.5 ml/pot), preventive, control value class; for Test G (control value class, downy mildew on vine): 250 ppm, sprayed 2.5 ml/pot before inoculation; for Test G control value: 250 ppm sprayed before inoculation
Excerpt: [Test Example G] Downy Mildew on Vine
Seeds of a test plant (grape variety: Neomuscat) were planted followed by cultivating until three to four first leaves appeared. […] After the sprayed dilutions were dried, a zoosporangia suspension (1-2×10^4 zoosporangia/ml) of Plasmopara viticola was inoculated to the plants by spraying.

[1] = test system: Blumeria graminis f sp. hordei; assay: Test Example D: Powdery mildew on barley; conditions: for Test D control value (powdery mildew on barley): preventive, control value class; for Test D (control value class, powdery mildew on barley): in vivo
Excerpt: [Test Example D] Powdery Mildew on Barley
After the sprayed dilutions were dried, conidia of Blumeria graminis f sp. hordei were inoculated to the plants by shaking off.

Puccinia recondita = assay: Test Example E: Brown rust on wheat; conditions: for Test E control value (brown rust on wheat): preventive, control value class; for Test E (control value class, brown rust on wheat): in vivo
Excerpt: [Test Example E] Brown Rust on Wheat

[2] = gray mold on tomato, Botrytis cinerea, 250 ppm spray
[3] = downy mildew on vine, Plasmopara viticola, 7-10 days after inoculation
[4] = powdery mildew on barley, 250 ppm spray
[5] = brown rust on wheat, Puccinia recondita, 250 ppm spray
[6] = Gray mold on tomato, control value=100{1-(n/3)}
[7] = Downy mildew on vine, 2.5 ml/pot, evaluated 7-10 days after inoculation
[8] = Powdery mildew on barley, control value=100{1-(n/3)}
[9] = Brown rust on wheat, control value=100{1-(n/3)}
[10] = evaluated 7-10 days after inoculation
[11] = Downy mildew on vine, 7-10 days after inoculation

COc1cc(F)c(-c2c(-c3cc(F)cc(F)c3F)ccc(=O)n2C)c(F)c1 [Compound 550]
Test C (control value class) (Alternaia brassicicola; 250 ppm spray): H (H shows more than 50% of control values)
Test B (control value class) (Botrytis cinerea; [2]): H (H shows more than 50% of control values)
Test G (control value class) (Plasmopara viticola; [3]): H (H shows more than 50% of control values)
Test D (control value class) [1, 4]: H (H shows more than 50% of control values)
Test E (control value class) (Puccinia recondita; [5]): H (H shows more than 50% of control values)

COc1cc(OC)c(Cl)c(-c2ccc(=O)n(C)c2-c2ccccc2F)c1Cl [Compound 233]
Test C control value (Alternaria sooty spot on cabbage) (Alternaia brassicicola; 250 ppm spray): L (L shows 50% or less of control values)
Test B control value (gray mold on tomato) (Botrytis cinerea; 250 ppm spray): H (H shows more than 50% of control values)
Test G control value (downy mildew on vine) (Plasmopara viticola; 7-10 days after inoculation): H (H shows more than 50% of control values)
Test D control value (powdery mildew on barley) ([1]; 250 ppm spray): H (H shows more than 50% of control values)
Test E control value (brown rust on wheat) (Puccinia recondita; 250 ppm spray): H (H shows more than 50% of control values)

CCn1c(-c2c(F)cc(OC)cc2F)c(-c2ccc(OC)cc2Cl)ccc1=O [Compound 755]
Test C (control value class) (Alternaia brassicicola; control value=100{1-(n/3)}): H (H shows more than 50% of control values)
Test B (control value class) (Botrytis cinerea; [6]): H (H shows more than 50% of control values)
Test G (control value class) (Plasmopara viticola; [7]): H (H shows more than 50% of control values)
Test D (control value class) [1, 8]: H (H shows more than 50% of control values)
Test E (control value class) (Puccinia recondita; [9]): H (H shows more than 50% of control values)

Cn1c(-c2c(F)cccc2F)c(-c2ccc(Cl)cc2)cc(Br)c1=O [Compound 286]
Test C control value (Alternaria sooty spot on cabbage) (Alternaia brassicicola; 250 ppm spray): H (H shows more than 50% of control values)
Test B control value (gray mold on tomato) (Botrytis cinerea; 250 ppm spray): H (H shows more than 50% of control values)
Test G control value (downy mildew on vine) (Plasmopara viticola; 7-10 days after inoculation): H (H shows more than 50% of control values)
Test D control value (powdery mildew on barley) ([1]; 250 ppm spray): L (L shows 50% or less of control values)
Test E control value (brown rust on wheat) (Puccinia recondita; 250 ppm spray): H (H shows more than 50% of control values)

CCn1c(-c2c(F)cc(F)cc2F)c(-c2ccc(OC)cc2Cl)cc(Cl)c1=O [Compound 746]
Test C (control value class, Alternaria sooty spot on cabbage) (Alternaia brassicicola): H (H shows more than 50% of control values)
Test B (control value class, gray mold on tomato) (Botrytis cinerea): H (H shows more than 50% of control values)
Test G (control value class, downy mildew on vine) (Plasmopara viticola; [10]): L (L shows 50% or less of control values)
Test D (control value class, powdery mildew on barley) [1]: H (H shows more than 50% of control values)
Test E (control value class, brown rust on wheat) (Puccinia recondita): H (H shows more than 50% of control values)

CCn1c(-c2c(F)cccc2F)c(-c2ccc(Br)cc2)cc(Cl)c1=O [Compound 294]
Test C control value (Alternaria sooty spot on cabbage) (Alternaia brassicicola; 250 ppm spray): H (H shows more than 50% of control values)
Test B control value (gray mold on tomato) (Botrytis cinerea; 250 ppm spray): H (H shows more than 50% of control values)
Test G control value (downy mildew on vine) (Plasmopara viticola; 7-10 days after inoculation): H (H shows more than 50% of control values)
Test D control value (powdery mildew on barley) ([1]; 250 ppm spray): H (H shows more than 50% of control values)
Test E control value (brown rust on wheat) (Puccinia recondita; 250 ppm spray): H (H shows more than 50% of control values)

Cc1ccccc1-c1cc(Br)c(=O)n(C)c1-c1c(F)cccc1F [Compound 182]
Test C control value (Alternaia brassicicola): H (H shows more than 50% of control values)
Test B control value (Botrytis cinerea; Gray mold on tomato): H (H shows more than 50% of control values)
Test G control value (Plasmopara viticola; [11]): L (L shows 50% or less of control values)
Test D control value ([1]; Powdery mildew on barley): L (L shows 50% or less of control values)
Test E control value (Puccinia recondita; Brown rust on wheat): H (H shows more than 50% of control values)

O=c1ccc(-c2cccc(Cl)c2F)c(-c2c(F)cccc2F)n1CC(F)F [Compound 494]
Test C (control value class) (Alternaia brassicicola; 250 ppm spray): H (H shows more than 50% of control values)
Test B (control value class) (Botrytis cinerea; [2]): L (L shows 50% or less of control values)
Test G (control value class) (Plasmopara viticola; [3]): L (L shows 50% or less of control values)
Test D (control value class) [1, 4]: H (H shows more than 50% of control values)
Test E (control value class) (Puccinia recondita; [5]): L (L shows 50% or less of control values)

CCn1c(-c2c(F)cc(OC)cc2F)c(-c2cc(F)ccc2Cl)cc(Cl)c1=O [Compound 386]
Test C (control value class) (Alternaia brassicicola; 250 ppm spray): H (H shows more than 50% of control values)
Test B (control value class) (Botrytis cinerea; [2]): H (H shows more than 50% of control values)
Test G (control value class) (Plasmopara viticola; [3]): L (L shows 50% or less of control values)
Test D (control value class) [1, 4]: H (H shows more than 50% of control values)
Test E (control value class) (Puccinia recondita; [5]): H (H shows more than 50% of control values)

COc1cc(F)c(-c2c(-c3cc(F)cc(F)c3)ccc(=O)n2C)c(F)c1 [Compound 803]
Test C (control value class) (Alternaia brassicicola; control value=100{1-(n/3)}): H (H shows more than 50% of control values)
Test B (control value class) (Botrytis cinerea; [6]): H (H shows more than 50% of control values)
Test G (control value class) (Plasmopara viticola; [7]): H (H shows more than 50% of control values)
Test D (control value class) [1, 8]: H (H shows more than 50% of control values)
Test E (control value class) (Puccinia recondita; [9]): H (H shows more than 50% of control values)

Cn1c(-c2c(F)cccc2F)c(-c2cc(F)ccc2F)cc(Cl)c1=O [Compound 484]
Test C (control value class) (Alternaia brassicicola; 250 ppm spray): H (H shows more than 50% of control values)
Test B (control value class) (Botrytis cinerea; [2]): H (H shows more than 50% of control values)
Test G (control value class) (Plasmopara viticola; [3]): H (H shows more than 50% of control values)
Test D (control value class) [1, 4]: H (H shows more than 50% of control values)
Test E (control value class) (Puccinia recondita; [5]): H (H shows more than 50% of control values)

CCOc1cc(F)c(-c2c(-c3ccccc3Cl)cc(Br)c(=O)n2CC)c(F)c1 [Compound 703]
Test C (control value class, Alternaria sooty spot on cabbage) (Alternaia brassicicola): H (H shows more than 50% of control values)
Test B (control value class, gray mold on tomato) (Botrytis cinerea): H (H shows more than 50% of control values)
Test G (control value class, downy mildew on vine) (Plasmopara viticola; [10]): H (H shows more than 50% of control values)
Test D (control value class, powdery mildew on barley) [1]: H (H shows more than 50% of control values)
Test E (control value class, brown rust on wheat) (Puccinia recondita): H (H shows more than 50% of control values)

CCn1c(-c2c(F)cccc2F)c(-c2ccccc2C(F)(F)F)cc(Cl)c1=O [Compound 147]
Test C control value (Alternaia brassicicola): L (L shows 50% or less of control values)
Test B control value (Botrytis cinerea; Gray mold on tomato): L (L shows 50% or less of control values)
Test G control value (Plasmopara viticola; [11]): L (L shows 50% or less of control values)
Test D control value ([1]; Powdery mildew on barley): L (L shows 50% or less of control values)
Test E control value (Puccinia recondita; Brown rust on wheat): H (H shows more than 50% of control values)

CCn1c(-c2c(F)cc(F)cc2F)c(-c2ccc(F)cc2Cl)cc(Br)c1=O [Compound 578]
Test C (control value class, Alternaria sooty spot on cabbage) (Alternaia brassicicola): H (H shows more than 50% of control values)
Test B (control value class, gray mold on tomato) (Botrytis cinerea): H (H shows more than 50% of control values)
Test G (control value class, downy mildew on vine) (Plasmopara viticola; [10]): L (L shows 50% or less of control values)
Test D (control value class, powdery mildew on barley) [1]: H (H shows more than 50% of control values)
Test E (control value class, brown rust on wheat) (Puccinia recondita): H (H shows more than 50% of control values)

CCn1c(-c2c(F)cc(OC)cc2F)c(-c2ccccc2Cl)ccc1=O [Compound 430]
Test C (control value class) (Alternaia brassicicola; 250 ppm spray): H (H shows more than 50% of control values)
Test B (control value class) (Botrytis cinerea; [2]): H (H shows more than 50% of control values)
Test G (control value class) (Plasmopara viticola; [3]): H (H shows more than 50% of control values)
Test D (control value class) [1, 4]: H (H shows more than 50% of control values)
Test E (control value class) (Puccinia recondita; [5]): H (H shows more than 50% of control values)

CCn1c(-c2c(F)cc(F)cc2F)c(-c2cc(OC)cc(OC)c2Cl)ccc1=O [Compound 696]
Test C (control value class, Alternaria sooty spot on cabbage) (Alternaia brassicicola): H (H shows more than 50% of control values)
Test B (control value class, gray mold on tomato) (Botrytis cinerea): H (H shows more than 50% of control values)
Test G (control value class, downy mildew on vine) (Plasmopara viticola; [10]): H (H shows more than 50% of control values)
Test D (control value class, powdery mildew on barley) [1]: H (H shows more than 50% of control values)
Test E (control value class, brown rust on wheat) (Puccinia recondita): H (H shows more than 50% of control values)
